In the supplement of paper PMC3334620:
The full ranking holds about 33,000 sequences; the median of “E-score (-0.5 to 0.5)” is about -0.054, and the highest 2% start at about 0.35. This is one part of the list.

Target: T1, Stb5 (UniProt P38699)
T1 sequence: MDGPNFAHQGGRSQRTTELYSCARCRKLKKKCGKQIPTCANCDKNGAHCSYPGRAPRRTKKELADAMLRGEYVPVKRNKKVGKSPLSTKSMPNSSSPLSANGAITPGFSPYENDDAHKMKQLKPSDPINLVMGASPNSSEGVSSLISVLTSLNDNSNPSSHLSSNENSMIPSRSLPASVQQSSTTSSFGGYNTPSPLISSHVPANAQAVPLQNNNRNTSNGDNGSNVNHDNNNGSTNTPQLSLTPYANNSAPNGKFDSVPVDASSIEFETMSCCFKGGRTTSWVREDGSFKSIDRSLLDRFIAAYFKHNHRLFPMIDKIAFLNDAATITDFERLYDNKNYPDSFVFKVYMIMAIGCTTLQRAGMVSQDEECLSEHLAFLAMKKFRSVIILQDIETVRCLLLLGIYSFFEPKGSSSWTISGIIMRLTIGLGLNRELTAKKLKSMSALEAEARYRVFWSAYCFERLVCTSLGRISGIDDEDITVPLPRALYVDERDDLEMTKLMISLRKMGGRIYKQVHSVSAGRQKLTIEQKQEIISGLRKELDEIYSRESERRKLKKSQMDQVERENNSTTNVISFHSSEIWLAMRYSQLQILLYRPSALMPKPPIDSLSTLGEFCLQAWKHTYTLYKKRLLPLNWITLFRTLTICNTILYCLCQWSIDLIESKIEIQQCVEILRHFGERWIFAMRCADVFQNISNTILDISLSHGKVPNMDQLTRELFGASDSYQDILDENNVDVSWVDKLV
Assay: PBM E-score (8-mer binding enrichment) (E-score (-0.5 to 0.5)); higher = stronger / more preferred TF binding; most listed sequences are background and not binding sites
Settings: protein concentration: 200 nM; construct: GST-full length
In short: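 Using PURExpress in vitro transcription/translation, GST-tagged yeast transcription factors were made in full-length or DNA-binding-domain form. These were applied at about 100-200 nM to double-stranded universal all-10-mer Agilent arrays, and bound protein was detected with fluorescent anti-GST. Scans were normalised with masliner before the Universal PBM Analysis Suite assigned E-scores to ungapped eight-base words pooled with their reverse complements.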

Sequence	PBM E-score
TGCGACAA	-0.0423
ACCCGAAC	0.149
CGCCCCCA	-0.0403
GGAGCCAA	0.00764
GCCGGGGA	0.276
AACGCGGA	0.188
GCTACTAA	0.138
ATAGCATA	0.0052
ATTAGGGG	-0.196
CACCCACA	-0.00969
GATTATCC	0.0567
CCACGGGA	0.135
AGGTACAC	-0.127
TAGACCCA	-0.208
AGGAAGGG	-0.177
ACTGTAGC	-0.0847
AAAAAAAA	0.0519
CTCTAGCA	-0.236
CGGCCGTA	0.346
AATCTTGG	-0.0505
CCGCCAGG	0.193
TCCTCCCA	-0.103
CAGTGAGC	-0.151
ACGATTTA	-0.0849
GGAATCCA	-0.149

Sequence	PBM E-score
GGTAACGA	-0.085
ACGTATGA	-0.0693
CTACGGCC	0.174
TGAATGCA	-0.174
CGTTCCCC	0.0128
CCGGAATC	0.22
CGGGGCAC	0.133
AAGCCACT	-0.176
ACCCCTCC	-0.118
ACGAGACT	-0.243
AAGGAGAT	0.0485
CTAGCAAA	0.0912
CCGCAGGC	0.233
CATTCGAC	-0.0682
ACCCTACA	-0.268
AAGCAGAA	-0.117
CCTAGTGC	0.00057
AATTGGGC	-0.246
GAAAGCTA	-0.081
AGGGGTAG	-0.141
AGACAGTA	-0.205
GATTTTCA	-0.0236
AACGTCTG	-0.217
AATATCAT	0.0574
AATCCTAA	-0.0777

Sequence	PBM E-score
TCCACAAA	-0.0835
ACTCAACT	-0.00213
ACCGATTG	0.269
TAGACAGA	-0.196
GTAACGAA	-0.0882
AACATGCT	-0.261
AGATTCAA	-0.16
CAATATTG	-0.317
CGGGGCCC	0.157
AATTGTCA	-0.169
CCCATACG	-0.134
CGTATGCA	-0.0425
AAAAGAGT	-0.09
AGAGAGGC	-0.204
CAGCCAGA	-0.15
GAAAGCTC	-0.234
GTACATGA	-0.209
GAGGGTCA	-0.209
CACCACGC	-0.0679
CATAAGCC	0.0714
CAACGAGG	-0.0157
CTGGCATA	0.0405
TCTAGTCA	-0.11
CAACGAGA	-0.134
CCGCGGTA	0.399

Sequence	PBM E-score
GCTCTTAC	0.0111
TGCTCAAA	0.0446
ATTATCGA	-0.192
GGGGTCGA	0.166
CATCATAC	-0.0943
GACTGAGC	-0.258
ATATCGAG	0.116
ACGAAGCA	-0.22
CCCTCCTA	0.0186
AATGCTCT	-0.142
GCAAATAC	-0.0999
GCCTAGTA	-0.0419
CATTATAA	0.197
AGAGTTAC	-0.241
GATGGAAC	-0.124
AATGTTTG	-0.0299
ACAGTTGG	-0.203
AAGCATAG	-0.0769
ACAGCAAC	-0.0898
GTTTCCTA	-0.166
ATCCTAAG	-0.165
AAAACGGA	0.23
CATTGTAC	0.00498
CGTATCAC	0.0363
AAAGACGT	-0.0995

Sequence	PBM E-score
CATGGTAG	-0.146
GATACAAA	0.0377
CAGCGGGG	0.358
AAGCGTGG	-0.208
AGAACGCT	-0.129
AAGAAATT	0.00024
GACCTACA	-0.15
CCAATACG	0.0347
GACACGGA	0.158
TTCCAGAA	-0.0885
CTTACCCA	-0.246
AGGATCAG	-0.146
GAGATACA	0.121
CTGCAATA	-0.0819
ACTTCAGC	-0.19
GATAGGAA	-0.00848
TGTGACAA	-0.153
GGATTACC	0.115
ACACACAT	-0.207
GACTCTCA	-0.0159
GCCTCGGA	-0.0464
CAGTTGAG	-0.237
ACACAGCC	-0.0105
GCTGCGAA	-0.155
CGACACAA	-0.0889

Sequence	PBM E-score
AGATCACT	-0.11
GGTTCTTA	0.0236
TACGTCTA	-0.259
CAGATAGC	-0.0877
GGCCGGGA	0.263
AATCACAT	-0.0703
AAGTACTT	-0.00725
AGGTCGTC	-0.0116
CATCTAGA	-0.281
ACTTTTAG	0.124
TGTTAACA	0.101
GATTCGGA	-0.0369
ACGTGTCG	-0.168
GCTAGGAC	0.0309
TCCCTCAA	-0.133
GGATATAA	0.259
CCTACCCA	-0.195
CATTGGCC	-0.214
ATGGTCGC	-0.0607
ATACTCAG	-0.0787
CCATGATA	-0.0306
AGAGACCT	-0.26
GTGCACCA	-0.17
ACATAAGC	-0.0813
GCTGAGAC	-0.0818

Sequence	PBM E-score
GATGCAAA	-0.0132
CGAGCTAA	0.0492
AGGCCTAT	-0.202
GCTAATGA	-0.0209
AACATCCT	-0.176
GCTGGAGA	-0.188
GGCGTGAC	-0.0272
GATGCCGA	0.332
ACACTTGC	-0.249
GTATAACA	0.143
AGACGGCT	0.134
GCCGGGTA	0.195
CGTCCGGC	0.275
CCGGTTCA	0.237
AAACCGGT	0.304
GCGGTCCA	0.187
GAGGTCAA	-0.145
ATCCAACC	0.0538
GAAGAGGC	-0.173
AGCGTAGG	-0.0276
ATTGACAC	-0.0835
GCTCGCCC	-0.0285
